# Out of some 43,000 compounds screened, about 200 (0.47%) were called active. About 12% were inconclusive and are not listed. Calls come from the whole dose curve; as a rule, active = well fitted cell-killing curve with a large enough effect; inconclusive = small, poorly fitted or top-dose-only effect, or effect the other way; inactive = flat fitted curve, though single readings scatter. The list shows a part of the results.
# Assay: Cell viability qHTS assay in S16 Pmp22-F2sN cells; note: nearly all actives have a fitted effect of over 65% in size
# Details: S16 Pmp22-F2sN Schwann cells (luciferase reporters placed in the Pmp22 gene) viability, CellTiter-Glo, 24 h; series mostly up to 57.5 µM; activity change, negative = cytotoxicity: at the top concentration
# Method in brief: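 S16 Schwann cells carrying the Pmp22-F2sN reporter, seeded in 1536-well format, were exposed to library compounds for 24 h at 37C. Viability was read as CellTiter-Glo luminescence after 15 min at room temperature.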
# % is set by controls: 0 for no effect and ±100 for the full control effect.
row,Compound,"activity change, negative = cytotoxicity"
1,Nc1nnc2c(n1)[nH]c1ccccc12,inactive: -2.06%
2,COc1cccc(CSc2nc3cc(C(=O)NC4CCCC4)ccc3c(=O)n2Cc2ccccc2)c1,inactive: 4.6%
3,CCCC(=O)N(c1ccc2oc3c(c2c1)CCCC3)S(=O)(=O)c1cc(C)ccc1C,inactive: -0.872%
4,O=C1CC(c2nc3ccccc3[nH]2)CN1c1cccc(Cl)c1 (stereo not given),inactive: 1.45%
5,Cc1cc(Cl)ccc1NC(=O)c1cc(S(=O)(=O)N2CCOCC2)cn1C,inactive: 7.84%
6,O=C(CSc1nc2ccccc2n1Cc1ccccc1)N1CCN(c2ccc(F)cc2)CC1,inactive: -4.22%
7,COc1ccc(-n2cc(C(=O)NCc3ccccc3)c3ccccc3c2=O)cc1,inactive: -1.81%
8,Cc1cc(C)c2c(CC(=O)N3CCN(c4cccc(Cl)c4)CC3)coc2c1,inactive: -0.357%
9,CCOc1ccccc1N1CC(c2nc3ccccc3n2CCOc2ccccc2)CC1=O (stereo not given),inactive: -10.6%
10,CCc1cccc(NC(=O)Cn2c(=O)ccc3cc(S(=O)(=O)N4CCC(C)CC4)ccc32)c1,inactive: 4.61%
11,CCc1ccc(CNc2ncnc3c2nc2n3CCCC2)cc1,inactive: -11.2%
12,O=C(c1ccc2c(c1)N(Cc1ccc(Cl)cc1)C(=O)c1ccccc1S2=O)N1CCOCC1 (stereo not given),inactive: 14.1%
13,COc1cccc(N2CCN(C(=O)c3ccc(Cn4c(=O)[nH]c5cc(OC)c(OC)cc5c4=O)cc3)CC2)c1,inactive: -25.7%
14,CC1CCc2nc3ncn(Cc4ccccc4C#N)c(=O)c3cc2C1 (stereo not given),inactive: 3.28%
15,CCC(=O)N1c2ccccc2CC1C(=O)NCCc1ccccc1C (stereo not given),inactive: 5.58%
16,Cc1c(Cl)cccc1NC(=O)c1cnc2sc(N3CCOCC3)nn2c1=O,inactive: 3.29%
17,CCN(c1ccccc1)S(=O)(=O)c1ccc(NC(=O)c2cc(=O)c3cc(C)cc(C)c3o2)cc1,inactive: -3.48%
18,COc1ccc2oc(=O)cc(CN3CCN(Cc4ccccc4)CC3)c2c1,inactive: -17.6%
19,COc1ccc(OC)c(CCNC(=O)CCCn2c(=O)c3cccn3c3ccccc32)c1,inactive: -4.33%
20,O=C(CSc1cn(CC(=O)N2CCOCC2)c2ccccc12)Nc1ccccc1F,inactive: 11.2%
21,Cc1ccc(S(=O)(=O)Nc2ccc3c(c2)CCCN3C(=O)c2cccs2)cc1,inactive: -10.2%
22,Cc1cc2ccccc2n1CCNC(=O)c1cccc(Br)c1,inactive: 16.2%
23,O=C(Nc1ccc2nn(-c3ccccc3)nc2c1)c1cc2ccccc2o1,inactive: 12.9%
24,CCOC(=O)c1scc(-c2ccccc2)c1S(=O)(=O)Nc1cc(OC)cc(OC)c1,inactive: 12.9%

row,Compound,"activity change, negative = cytotoxicity"
1,CC(C)Oc1ccc(CNC(=O)CCCN2C(=O)c3cccnc3Oc3ccc(Cl)cc32)cc1,inactive: -22.3%
2,CCN(C(=O)c1cc2c(s1)-c1c(C)cccc1OC2)c1ccccc1F,inactive: -17.6%
3,CCC(=O)N1CCc2cc(Br)cc(S(=O)(=O)Nc3ccc(C)cc3C)c21,inactive: -9.64%
4,COc1ccc(CC(=O)N2CCc3cc(OC)c(OC)cc3C2COc2ccc(OC)cc2)cc1 (stereo not given),inactive: -13.8%
5,Cc1ccc(C)c(NC(=O)c2cnn(-c3cccc(F)c3)c2C2CCN(C(=O)OC(C)(C)C)CC2)c1,inactive: -19.2%
6,CCOc1ccc(NS(=O)(=O)c2ccc(-c3cc(C)no3)s2)cc1,inactive: -26.1%
7,O=C(Cn1cc(SCc2c(F)cccc2Cl)c2ccccc21)N1CCCCCC1,inactive: -18.7%
8,COc1ccc(-n2nc(C(=O)N(C)c3cc(C)ccc3C)c3c4ccccc4n(C)c3c2=O)cc1Cl,inactive: 6.31%
9,Cc1ccc2c(Sc3ccc(Cl)cc3)c(C(=O)N3CCC(C)CC3)[nH]c2c1,inactive: -2.77%
10,COc1ccc(CNS(=O)(=O)c2cnc(N)nc2)c(OC)c1,inactive: -3.74%
11,CS(=O)(=O)c1ccc(-c2nnc(NC(=O)c3ccc4c(c3)OCCO4)o2)cc1,inactive: -2.87%
12,CNC(=O)c1c(NC(=O)c2ccc(S(=O)(=O)N3CCC(C)CC3)cc2)sc2c1CCC2,inactive: 1.33%
13,Cc1cccc(C)c1OCC(=O)NCC1(N(C)C)CCCCC1,inactive: 1.42%
14,Cc1ccc(N2C(=O)CSC23C(=O)N(CC(=O)NCc2ccccc2)c2ccccc23)cc1C (stereo not given),inactive: -2.11%
15,COc1ccccc1CNC(=O)C1CCC(CNS(=O)(=O)c2ccc3c(c2)CCCC(=O)N3)CC1 (stereo not given),inactive: -18.1%
16,COCCCNC(=O)c1ccc(NC(=O)c2nsc3ccccc23)cc1,inactive: -20.3%
17,COc1ccc(CNC(=O)c2ccc(N3CCCC3)c(NC(=O)NCc3ccc(F)cc3)c2)cc1,inactive: 5.81%
18,CCOc1cc(CNC(=O)c2sc3ncnc(N(C)C4CCCCC4)c3c2C)ccc1OC,inactive: 0.598%
19,CC(=O)c1ccc(NC(=O)Cn2cc(S(=O)(=O)Cc3cccc(Cl)c3)c3ccccc32)cc1,inactive: -3.38%
20,CCC1CN(C(=O)N2CCC(C(=O)NCCN(CC)CC)CC2)c2cc(C)ccc2O1 (stereo not given),inactive: 3.39%
21,CCc1ccccc1NC(=O)c1c(NC(=O)c2ccccc2)sc2c1CCCC2,inactive: 9.4%
22,Cc1ccc(-c2nnc(SCc3ccccc3C)o2)cc1,inactive: 10.6%
23,COc1ccc(S(=O)(=O)Nc2ccc3c(c2)N(C(C)=O)CCC3)cc1F,inactive: -17.5%
24,CCOC(=O)C1CCC(CN(Cc2cccc(Br)c2)S(=O)(=O)c2ccc(C)cc2)CC1 (stereo not given),inactive: 4.42%

row,Compound,"activity change, negative = cytotoxicity"
1,CCc1ccc(C(=O)c2cn(CC(=O)Nc3ccc4c(c3)OCO4)c3cc(OC)c(OC)cc3c2=O)cc1,inactive: 13.3%
2,O=C(COc1ccc(Cl)cc1)Nc1ccc(-c2nc3ccccc3s2)c(O)c1,inactive: -2.44%
3,Cc1ccccc1N1CC(c2nc3ccccc3n2CCC2CCCCC2)CC1=O (stereo not given),inactive: -16.5%
4,COc1ccc(CNC(=O)CCn2cccn2)cc1,inactive: 4.37%
5,Cc1ccc(C(C)C)c(OCC(=O)NCC2(N(C)C)CCCCC2)c1,inactive: 4.87%
6,COc1ccc(CCn2cc3c(c2-c2ccc(Br)cc2)c(=O)n(C)c(=O)n3C)cc1OC,inactive: 0.0745%
7,Cc1ccccc1C(=O)n1nc(-c2ccco2)nc1NCc1ccc(Cl)cc1,inactive: 2.73%
8,COc1ccc(-c2nc(C)c(CCNC(=O)C(=O)Nc3ccccc3OC)s2)cc1,inactive: 7.4%
9,O=C(NCCc1ccccc1Cl)c1ccc(Cn2c(=O)c3cccn3c3cccnc32)cc1,inactive: 0.699%
10,Cc1ccc(-c2cc3ncc4c(n3n2)-c2cc(C)ccc2OC4)cc1,inactive: 23.5%
11,Cc1cccc(Oc2nc3c(C)cccn3c(=O)c2/C=C(\C#N)c2nc3ccccc3[nH]2)c1,inactive: -1.54%
12,Cc1ccc2nc(N3CCN(c4cccc(Cl)c4)CC3)c(-n3nc(C)cc3C)nc2c1,inactive: 4.37%
13,CCOC(=O)C1=C(CN2CCC(C)CC2)NC(=O)NC1c1ccc(F)cc1 (stereo not given),inactive: -1.85%
14,COc1ccc(OC)c2sc(N3CCN(C(=O)C(C)(C)C)CC3)nc12,inactive: 0.312%
15,COc1cc(-c2cc(OC)c3c(C)oc(C)c3c(=O)c2)ccc1OC(=O)c1ccccc1Cl,inactive: 4.52%
16,COc1cc(Cl)c(NC(=O)CCS(=O)(=O)c2cc3c(cc2Cl)NC(=O)CO3)c(OC)c1,inactive: 4.53%
17,CCOc1ccccc1C(=O)Nc1ccc(S(=O)(=O)Nc2nc(C)cc(C)n2)cc1,inactive: -2.85%
18,CCc1cccc(NC(=O)CSC2=Nc3ccccc3N=C(c3ccc(F)cc3)C2)c1,inactive: -2.81%
19,Cc1ccc2nc(NC(=O)COc3ccc(F)cc3)sc2c1,inactive: 22.4%
20,O=C(CSc1nnc(CNC(=O)c2cccc(F)c2)n1-c1ccccc1)Nc1ccccc1F,inactive: 10.2%
21,Cc1ccc(NC(=O)Cn2cnc3sc(C(=O)O)c(C)c3c2=O)cc1Cl,inactive: 10.4%
22,CCN1CCN(c2nc3c(S(=O)(=O)c4ccc(Br)cc4)nnn3c3ccsc23)CC1,inactive: 2.25%
